# Measurements published in PubChem BioAssay AID2147 (National Center for Advancing Translational Sciences (NCATS), 2009).
# Out of some 230,000 compounds screened, about 3,600 (1.6%) were called active. Inconclusive results, whose numbers are uncertain, are shown with a selection of clear calls. Calls follow the shape of the dose curve; as a rule, active = well fitted inhibition curve with a large enough effect (not every such curve was filed as active); inconclusive = small, poorly fitted or top-dose-only effect, or another doubt; inactive = no such curve, though single readings can be large or run the other way. A potency beside an inconclusive call is a rough fit, not a confirmed value.
# Biological target: Lysine-specific demethylase 4E (Homo sapiens) (UniProt B2RXH2)
# Experiment: qHTS Assay for Inhibitors of Human Jumonji Domain Containing 2E (JMJD2E)
# Settings: JMJD2E catalytic domain, FDH-coupled NADH fluorescence (FDH is formaldehyde dehydrogenase); series mostly up to 57.1 µM
# Also: nearly all actives have a fitted effect of over 50% in size.
# Potency is read from the fitted curve at half-maximal effect; tags tell the direction and shape of the fitted curve.
# UniProt B2RXH2, sequence (B2RXH2 whole entry, looked up, the tested form may be a part): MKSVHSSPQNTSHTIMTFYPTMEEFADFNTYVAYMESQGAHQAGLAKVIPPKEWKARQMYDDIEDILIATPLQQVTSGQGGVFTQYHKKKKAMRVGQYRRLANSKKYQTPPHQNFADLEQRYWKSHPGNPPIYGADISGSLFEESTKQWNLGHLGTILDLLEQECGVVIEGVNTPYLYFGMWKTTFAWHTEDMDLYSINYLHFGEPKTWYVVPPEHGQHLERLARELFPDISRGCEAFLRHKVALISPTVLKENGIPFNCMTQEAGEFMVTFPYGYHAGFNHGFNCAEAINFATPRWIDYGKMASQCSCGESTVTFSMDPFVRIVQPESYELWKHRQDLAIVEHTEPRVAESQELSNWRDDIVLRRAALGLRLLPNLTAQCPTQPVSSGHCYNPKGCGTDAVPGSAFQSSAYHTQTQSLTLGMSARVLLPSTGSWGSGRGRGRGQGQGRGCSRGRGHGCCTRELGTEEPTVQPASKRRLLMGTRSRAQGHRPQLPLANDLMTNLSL
row,Structure (SMILES),Potency
1,Oc1cccc2ccc(/C=C/c3c(F)cccc3Cl)nc12,active: 28.2 µM
2,CCCCCCCCCCCCCCCC(=O)NCCCC(=O)O,inactive
3,O=C(/C=C/c1ccco1)c1ccc(NC(=O)C23CC4CC(CC(C4)C2)C3)cc1,active: 31.6 µM
4,COC(=O)C1(C)NC(=O)c2ccccc2N1 (centres undefined),"inconclusive: 31.6 µM [inhibitor, partial curve]"
5,Cc1cccc2c1N(CCOc1ccccc1Cl)C(=O)C2=O,inactive
6,O=C(NCCc1cn2ccsc2n1)c1cccs1,inactive
7,COc1ccc(-n2nnc3c(=O)n(CC(=O)N4CCCc5ccccc54)cnc32)cc1,inactive
8,CCn1c(SCC(=O)Nc2nonc2C)nnc1-c1ccco1,inactive
9,Cc1cc(=O)oc2c(CN3CCC(C)CC3)c(O)c(Cl)cc12,"inconclusive: 2.51 µM [inhibitor, partial curve]"
10,N#Cc1c(-c2cccs2)cc(-c2ccccn2)nc1N,"inconclusive: 22.4 µM [inhibitor, partial curve]"
11,COC1(OC)N=C(N)C2(C#N)C(c3ccc4c(c3)OCO4)C12C#N (centres undefined),"inconclusive: 39.8 µM [inhibitor, single point]"
12,CC1CCN(CC(=O)Nc2ccc(N3CCCCCC3)cc2)CC1,active: 22.4 µM
13,COCCn1c(=N)c(C(=O)NCCc2ccc(OC)cc2)cc2c(=O)n3cccc(C)c3nc21,"inconclusive: 20 µM [inhibitor, partial curve]"
14,Cc1cc2cc3c(cc2nc1SCc1ccc(C(=O)O)cc1)OCCO3,"inconclusive: 28.2 µM [inhibitor, partial curve]"
15,Cc1ccc(-c2nn(-c3ccccc3)cc2C2CC(c3cccs3)=NN2C(=O)CCC(=O)O)cc1 (centres undefined),"inconclusive: 31.6 µM [inhibitor, partial curve]"
16,FC(F)(F)c1cccc(CNc2ncccc2-c2nc3cc(Cl)ccc3o2)c1,"inconclusive: 3.16 µM [inhibitor, full curve]"
17,Cc1ccccc1NCC(=O)N/N=C/c1c[nH]c2ccccc12,inactive
18,C=CCNC(=S)N/N=C(\C)c1ccccn1,active: 8.91 µM
19,CCOc1ccc(S(=O)(=O)Nc2ccccc2C(=O)NCc2ccco2)cc1,"inconclusive: 28.2 µM [inhibitor, partial curve]"
20,COCCn1c(=NC(=O)c2ccc3c(c2)OCO3)c(C#N)cc2c(=O)n3cccc(C)c3nc21,"inconclusive: 3.55 µM [inhibitor, full curve]"
21,CCN(CC(=O)Nc1c(F)cccc1F)C(=O)COc1ccc2c(C)cc(=O)oc2c1,"inconclusive: 28.2 µM [inhibitor, partial curve]"
22,COC(=O)CN1C(=O)C(O)(CC(=O)c2cccc(Br)c2)c2ccccc21 (centres undefined),inactive
23,Cc1ccccc1N1CCN(c2ncnc3c2cnn3Cc2ccc(Cl)cc2)CC1,"inconclusive: 31.6 µM [inhibitor, single point]"
24,COc1cccc(CNS(=O)(=O)/C=C/c2ccc(OC)c(OC)c2)c1,"inconclusive: 35.5 µM [inhibitor, single point]"
25,COc1ccc(N2C(=O)c3ccccc3NC23CCC(C)CC3)cc1 (centres undefined),"inconclusive: 12.6 µM [inhibitor, partial curve]"

row,Structure (SMILES),Potency
1,Cc1nc(CSc2nsc(/C=C/N(C)C)c2C#N)cs1,inactive
2,COc1ccc(-n2cc(C(=O)c3ccccc3O)cn2)cc1,"inconclusive: 28.2 µM [inhibitor, partial curve]"
3,O=C(Nc1ccc(F)c(Cl)c1)c1ccc2c(=O)n3c(nc2c1)CCCCC3,inactive
4,S=C(NCC(c1ccco1)N1CCCC1)Nc1ccccc1 (centres undefined),inactive
5,CCOC(=O)c1c(NC(=O)/C=C/C(=O)O)sc(C)c1-c1ccc(Cl)cc1,inactive
6,COc1ccc2c(c1OC)C(=O)OC2CC(=O)c1ccc(O)c(O)c1 (centres undefined),active: 14.1 µM
7,O=C(COC(=O)c1n[nH]c2ccccc12)NCc1ccccc1,"inconclusive: 35.5 µM [inhibitor, single point]"
8,CCOc1ccccc1C1C2=C(COC2=O)Nc2cc3c(cc21)OCO3 (centres undefined),"inconclusive: 31.6 µM [inhibitor, partial curve]"
9,CC(C)N(CCC(=O)c1ccc2ccccc2c1)Cc1ccccc1,active: 35.5 µM
10,O=C(O)c1ccc(NC(=S)NC(=O)c2ccc(-c3ccccc3)cc2)cc1,inactive
11,Cc1ccc(C(O)(C(=O)NNc2ccc3ccccc3n2)c2ccc(C)cc2)cc1,"inconclusive: 39.8 µM [inhibitor, single point]"
12,CC1CCc2nn(CC(=O)N3CCN(C(=O)c4ccco4)CC3)cc2C1 (centres undefined),inactive
13,CCOc1ccc(N2CSC(=S)N(c3ccc(OCC)cc3)C2)cc1,inactive
14,Cc1cc(C(=O)COC(=O)c2nccnc2N)c(C)n1C,"inconclusive: 35.5 µM [inhibitor, partial curve]"
15,O=c1[nH]nc(SCc2cc(Cl)ccc2Cl)c(=O)[nH]1,inactive
16,CC(=O)N1CCc2cc3nc(C)cc(C)c3cc21,"inconclusive: 28.2 µM [inhibitor, partial curve]"
17,CCC(=O)Nc1cc(Cl)ccc1C(=O)O,"inconclusive: 31.6 µM [inhibitor, partial curve]"
18,COc1ccc(C2CC(=O)Nc3ccccc3S2(=O)=O)cc1OC (centres undefined),"inconclusive: 28.2 µM [inhibitor, single point]"
19,CCCSCC(=O)Nc1ncc2c(n1)-c1ccccc1CC2,"inconclusive: 35.5 µM [inhibitor, single point]"
20,COc1ccc(Cn2nnnc2C(c2cc3cccc(C)c3[nH]c2=O)N2CCN(C)CC2)cc1 (centres undefined),"inconclusive: 28.2 µM [inhibitor, partial curve]"
21,Cc1cccc(S(=O)(=O)c2c(N)n(/N=C/c3ccccc3)c3nc4ccccc4nc23)c1,"inconclusive: 28.2 µM [inhibitor, partial curve]"
22,CCOC(=O)C1(CC)NC(c2ccco2)C2C(=O)N(CC)C(=O)C21 (centres undefined),inactive
23,Cc1cccc(NC(=O)c2sc3nc(-c4ccccc4)cn3c2C)n1,"inconclusive: 39.8 µM [inhibitor, single point]"
24,Cc1nn(Cc2ccccc2Cl)c2sc(C(=O)Nc3ccccc3N3CCOCC3)cc12,"inconclusive: 35.5 µM [inhibitor, single point]"
